Data reported in the BET-seq Pho4 binding data (Le et al. 2018).
The other results are listed elsewhere or left out. These are noisy estimates, calculated here from bound and input reads.

Molecular target: T1, Pho4 (S. cerevisiae) (UniProt P07270)
T1 sequence: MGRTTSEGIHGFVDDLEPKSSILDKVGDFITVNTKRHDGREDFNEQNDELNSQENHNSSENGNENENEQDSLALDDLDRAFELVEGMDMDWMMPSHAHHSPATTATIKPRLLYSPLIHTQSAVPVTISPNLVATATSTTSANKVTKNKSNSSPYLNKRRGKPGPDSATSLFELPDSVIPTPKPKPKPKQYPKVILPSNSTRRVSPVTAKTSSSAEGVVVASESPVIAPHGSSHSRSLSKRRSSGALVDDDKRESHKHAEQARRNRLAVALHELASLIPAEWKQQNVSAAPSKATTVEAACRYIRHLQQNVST
Test: relative binding free energy (BET-seq); higher = weaker binding
Conditions: reference: library average

Sequence | relative binding free energy [kcal/mol]
TGAAGCACGTGATAGG | -0.08
GGGGGCACGTGACTTT | 0.03
TGAGGCACGTGGCGCG | -0.23
CTGAACACGTGTATTT | 0.15
CGGGCCACGTGGAAGG | 0.02
AGGATCACGTGGTCTG | 0.14
TACTTCACGTGTGTAA | 0.21
GTTCGCACGTGGAGAT | 0.1
GATTACACGTGTGTGA | 0.26
GATGCCACGTGTGGTA | -0.04
ATTCGCACGTGTATAT | -0.02
ATCGGCACGTGGAGGG | -0.08
GTTGGCACGTGGCGTG | -0.2
GTGGGCACGTGATGCA | 0.06
ATTTGCACGTGTAGTC | 0.24
AATTACACGTGTATGC | 0.12
GGGACCACGTGGATGG | -0.08
TTGGACACGTGGATTT | 0.07
TTCGGCACGTGGGGGG | -0.09
TGTGCCACGTGGTTGT | -0.11
ATCAGCACGTGTAGGT | -0.01
GGTGGCACGTGCGGTT | -0.02
AGTAGCACGTGACGTT | 0.22
GGTGCCACGTGTTATT | 0.14
TTTCGCACGTGCTTAT | -0.04
TGGTACACGTGGATTC | 0.16

Sequence | relative binding free energy [kcal/mol]
CATGTCACGTGAATGT | 0.21
TACGTCACGTGAGGTG | 0.28
CTAATCACGTGAGGTA | 0.35
TGTGTCACGTGATCGA | 0.02
AGGGACACGTGTGGAC | 0.08
AAGGGCACGTGATCTG | -0.2
TAAAGCACGTGAGGGC | 0.13
GGAAGCACGTGGGTGA | -0.19
CAGGGCACGTGGCCGG | -0.27
ATAGGCACGTGTTATT | -0.22
TCGAGCACGTGGGTGA | -0.2
AAGAGCACGTGATATG | 0.07
TAGCCCACGTGTGGGT | -0.01
GGTGTCACGTGACGGC | 0.18
TGATTCACGTGGTGAC | 0.26
ATTTGCACGTGCGTTA | -0.2
GTTCGCACGTGAGGCT | 0.28
CATTGCACGTGGTGTC | 0.07
GGATGCACGTGGGTTT | 0
TACTGCACGTGTAGGT | 0.01
AGGTGCACGTGTAGTA | 0
ATTAGCACGTGGTTGG | -0.13
ATTTTCACGTGATGCG | 0.31
ACGAGCACGTGTGTTT | -0.09
CTTAGCACGTGGTGCT | -0.05
TTTTGCACGTGATACG | 0.08

Sequence | relative binding free energy [kcal/mol]
GTTATCACGTGAGCAG | 0.43
GGGGACACGTGTTAAT | 0.08
TGGAACACGTGGCTTA | 0
TCCGTCACGTGGGGTG | -0.04
TCGAGCACGTGAAGGG | 0.1
GGTCGCACGTGTTATA | 0.03
CCATGCACGTGGGTGG | -0.23
CAATGCACGTGTGTTG | -0.07
TGATGCACGTGGGTTC | -0.04
TTAGTCACGTGGATTC | 0.1
TCATTCACGTGTTATA | 0.23
CTTAGCACGTGGAGGT | -0.08
TACGTCACGTGTAAGT | 0.2
TTATGCACGTGATTAA | -0.14
GTGGGCACGTGTTGGT | 0.05
TTCTGCACGTGGAAGG | 0.18
GGCGACACGTGTGGCG | 0.13
ATGTACACGTGAGGCT | 0.14
GTAGGCACGTGGCGGG | -0.19
GACGGCACGTGAGGTA | 0.36
GGTTGCACGTGTATAG | 0.07
ACATGCACGTGTTGAG | -0.02
TTGGTCACGTGTCGCT | 0.23
GTTATCACGTGTGATT | 0.21
CATTACACGTGTTTGG | 0.03
TTGTTCACGTGGAAGA | 0.23

Sequence | relative binding free energy [kcal/mol]
TACGTCACGTGTGTAT | 0.07
CGGTTCACGTGGTGCA | 0.12
TTTTACACGTGAGCGT | 0.31
TGATCCACGTGGTGGA | -0.05
CTGGACACGTGAGAGT | 0.21
AGTTGCACGTGCAATG | 0.04
TATTGCACGTGCATTG | -0.03
TTATGCACGTGTGTGA | 0.09
GGGCTCACGTGCTGGG | 0.13
TTACTCACGTGGATGT | 0.06
TCGTACACGTGGTGTT | -0.06
TATTGCACGTGGCTTG | -0.14
ATTTACACGTGGGAGT | 0.06
GCTGGCACGTGCATGT | -0.09
GGTATCACGTGGTTTT | 0.15
AAAGTCACGTGTTTGG | -0.01
GTGTACACGTGTTTTC | 0.07
AAGGACACGTGAGGTT | 0.22
CAGGCCACGTGAGGGT | 0.03
TCGTGCACGTGGGTTT | -0.08
TCGAACACGTGGGGTT | -0.18
ATGGTCACGTGGCAGT | 0.06
GCGGACACGTGCGGGT | 0.05
GTGTACACGTGAGGTG | 0.19
TGCGCCACGTGCGGGG | -0.26
ATAGGCACGTGGATTT | -0.07

Sequence | relative binding free energy [kcal/mol]
AAATTCACGTGTAAGG | 0.26
TTACGCACGTGCGGTG | -0.31
TTTCGCACGTGCTGTG | -0.12
CAAGACACGTGGGTGG | -0.05
TTGTGCACGTGGTAGG | -0.12
GTTAGCACGTGGCTAT | -0.18
GACTTCACGTGGGTTA | 0.25
TTCATCACGTGAGGAG | 0.38
CTTGACACGTGATGGT | 0.02
ATCGGCACGTGATGGT | -0.07
ATAAGCACGTGACGGG | 0.2
TGAATCACGTGGGCTG | 0
GGGGTCACGTGGTTCA | 0.24
CAGGGCACGTGTGGGT | 0.01
CTGTGCACGTGTATTG | -0.06
GACGGCACGTGTGGTC | 0.08
ATCAGCACGTGTAGTG | -0.18
GTAGACACGTGTCGGT | -0.08
GGCGTCACGTGTGCTG | 0.11
TTCGACACGTGAGGGG | 0.18
GGTTTCACGTGAGTCA | 0.51
AATTTCACGTGACGTG | 0.33
TGCTGCACGTGCTTGG | -0.23
TTTGACACGTGCGACG | 0.2
TTTTTCACGTGGGTGA | 0.27
ATGGTCACGTGGAGTA | -0.02

Sequence | relative binding free energy [kcal/mol]
GTTGGCACGTGAGCGT | 0.08
TCGTTCACGTGTTCAG | 0.32
GAAATCACGTGATGGT | 0.32
TGGATCACGTGATAAG | 0.4
GTTGGCACGTGTTGTT | -0.03
ATGTGCACGTGAGGCG | 0.16
TTTAACACGTGTAATG | 0.1
TATTACACGTGCAGTT | 0.16
GTTTGCACGTGAGTAC | 0.21
ATGTTCACGTGCGTCT | 0.21
AAGGGCACGTGAGTTT | 0.15
ATGGACACGTGTTCTT | 0.03
CGGGTCACGTGGTGTT | 0.08
GCGGGCACGTGCGGTG | -0.05
GTGGTCACGTGATCGT | 0.25
AATTGCACGTGGGGTG | -0.07
CGGGCCACGTGGTGGC | -0.21
CTAATCACGTGGTTTA | 0.1
CGACGCACGTGGGGGT | -0.28
GTTCGCACGTGAGGTA | 0.2
GTTTTCACGTGGCTGG | 0.37
CAAGGCACGTGGGGGG | -0.21
ATGTACACGTGGTTAT | 0.05
ATGTACACGTGTAGGA | 0
GAGATCACGTGTGCGG | 0.22
AATGGCACGTGAGGTT | 0.17

Sequence | relative binding free energy [kcal/mol]
GAGGGCACGTGTGCGG | -0.2
CATTGCACGTGTATGT | -0.07
TCCGGCACGTGAGGTG | -0.06
GGGCCCACGTGGGGTA | -0.37
GCTTGCACGTGGGTCT | 0.07
AGATGCACGTGTTTAG | -0.04
ATGTTCACGTGTCAGG | 0.21
TAGGTCACGTGGCAGA | 0.03
TGAAGCACGTGGAGTG | -0.07
TGTCGCACGTGTATTG | -0.07
GTGCGCACGTGATAGG | -0.06
GTATGCACGTGGTCAG | -0.01
TTAAACACGTGAGGAA | 0.25
AGGGTCACGTGAATAT | 0.36
CGCGTCACGTGTAGGT | 0.04
CGTGGCACGTGAGACG | 0.11
GATAGCACGTGAGGGT | 0.23
ACGTGCACGTGGGTAT | -0.2
TTGTACACGTGTGTAG | 0.14
ATGTCCACGTGGGCAT | -0.03
GAGTACACGTGTGAGT | 0.27
TATGTCACGTGAGTTA | 0.23
ATTAACACGTGGGGCG | -0.12
TAATGCACGTGTTGTA | 0.01
CTTCGCACGTGTGGTA | 0.09
GGGGGCACGTGCAGCT | -0.29

Sequence | relative binding free energy [kcal/mol]
TGCACCACGTGGTTGG | 0.02
TTTGACACGTGTTGCG | 0.07
CGTGTCACGTGCTTGG | 0.04
GCAAGCACGTGAGGGG | 0.14
TGATGCACGTGGTTTG | -0.05
TGCTTCACGTGATATG | 0.29
GTGTTCACGTGAGAAT | 0.34
GCTTACACGTGGGGGT | -0.11
TGTGGCACGTGACAAG | 0
GTATACACGTGGGTGT | -0.09
ATAATCACGTGGCTTT | 0.06
GGTCTCACGTGTAGCA | 0.42
TCAGTCACGTGGATGT | 0.08
GAATACACGTGTTTAG | 0.19
CGTCGCACGTGAAAGG | 0.27
CTCTGCACGTGGGGAG | -0.18
CGAGGCACGTGTCAGG | -0.13
TGATACACGTGCTTGG | -0.02
CTGTACACGTGGTAGT | -0.02
CATAACACGTGGTGTT | -0.05
TCATTCACGTGTTGTT | 0.2
GGATTCACGTGTTTAG | 0.29
ATTCACACGTGTGGGT | 0.14
AGTTACACGTGGGTCT | 0.16
TAGAGCACGTGTATAG | -0.05
ACATTCACGTGTTGTG | 0.17

Sequence | relative binding free energy [kcal/mol]
AGAGTCACGTGGGGAA | 0.05
TTTTCCACGTGTGGAA | 0.2
GGTGCCACGTGGTTTT | 0.01
GAATACACGTGAGTAT | 0.38
AGAAGCACGTGAAGGG | 0.21
TATCGCACGTGTGTGT | 0.09
ACGGGCACGTGGGAAG | -0.06
GTCGACACGTGAAGGT | 0.4
TAATGCACGTGGTACG | -0.13
GTCATCACGTGTCGGG | 0.16
TCGGTCACGTGGGTGG | 0.02
TTGCTCACGTGGTTGA | 0.14
TCAGGCACGTGGTCTT | -0.15
TCTTTCACGTGATGTT | 0.21
ATCTTCACGTGGATGT | 0.16
TTTGTCACGTGAAGGT | 0.32
GAGGTCACGTGTTTAA | 0.21
AGTGGCACGTGGGCAC | -0.31
TAGTTCACGTGGGTGG | 0.26
TGTTCCACGTGGCATG | 0
GTTTGCACGTGGGTCA | -0.21
AGACACACGTGGAGGG | -0.03
